According to the supplement of paper PMC4967469:
The IC50 comes from the fitted curve, where viability falls to half of the control; fits outside the tested doses are given as limits. The AUC spans the tested range (256-fold, ending at the top dose) of the same fit; the more sensitive the line, the further below 1. For some of these results: An inferred top dose was calculated from the reported fits.

What was measured:
Assay in all cases: Viability of human cancer cell lines after 72 h of drug (GDSC screen)
[1] = compound: COc1cc(Nc2c(C#N)cnc3cc(OCCCN4CCN(C)CC4)c(OC)cc23)c(Cl)cc1Cl [Bosutinib]; conditions: top dose 2 µM
Description: (§1)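 Human cancer cell lines in 384-well plates, medium with 10% serum, drug for 72 h over a 256-fold dose range (nine 2-fold or five 4-fold steps up to the top dose). Adherent lines were fixed and stained with the nucleic acid dye Syto60, suspension lines read with resazurin; signal relative to control wells, capped at 0 and 100%. One two-parameter sigmoid per drug and line, fitted in a mixed model over all curves with the slope shared within a line.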

[2] = compound: CO[C@@H]1[C@H](N(C)C(=O)c2ccccc2)C[C@H]2O[C@]1(C)n1c3ccccc3c3c4c(c5c6ccccc6n2c5c31)C(=O)NC4 [Midostaurin]; conditions: top dose 0.512 µM; top dose inferred
Description: as §1

[3] = compound: O=C(O)CNC(=O)c1c(O)c2ccccc2n(Cc2ccccc2)c1=O [IOX2]; conditions: top dose 0.1 µM; top dose inferred
Description: as §1

[4] = compound: Cc1ccc(C(=O)Nc2cccc(C(F)(F)F)c2)cc1Nc1nc(-c2cccnc2)nc2c1cnn2C [NVP-BHG712]; conditions: top dose 10.24 µM; top dose inferred
Description: as §1

[5] = compound: CO[C@@]12[C@H](COC(N)=O)C3=C(C(=O)C(C)=C(N)C3=O)N1C[C@@H]1N[C@@H]12 [Mitomycin C]; conditions: top dose 16 µM
Description: as §1

[6] = compound: CC[C@H](CO)Nc1nc(NCc2ccccc2)c2ncn(C(C)C)c2n1 [Roscovitine]; conditions: top dose 16 µM; top dose inferred
Description: as §1

Cell Line | AUC [1] | IC50 [1] [nM] | AUC [2] | IC50 [2] [nM] | AUC [3] | IC50 [3] [nM] | AUC [4] | IC50 [4] [nM] | AUC [5] | IC50 [5] [nM] | AUC [6] | IC50 [6] [nM]
T84 (large intestine, adherent) | 0.989 | > 2000 | 0.981 | > 512 | 0.977 | > 100 | 0.936 | > 10200 | 0.249 | 187 | – | –
T98G (glioma, adherent) | 0.982 | > 2000 | 0.79 | 210 | 0.987 | > 100 | 0.966 | > 10200 | 0.391 | 514 | – | –
T-T (oesophagus, adherent) | 0.805 | 1000 | 0.781 | 211 | 0.959 | > 100 | 0.929 | > 10200 | 0.156 | 88 | – | –
TE-11 (oesophagus, adherent) | 0.921 | > 2000 | 0.811 | 243 | 0.989 | > 100 | 0.982 | > 10200 | 0.158 | 102 | – | –
TGBC11TKB (stomach, adherent) | 0.985 | > 2000 | 0.992 | > 512 | 0.991 | > 100 | 0.926 | > 10200 | 0.457 | 774 | – | –
TOV-21G (ovary, adherent) | 0.71 | 519 | 0.901 | > 512 | 0.979 | > 100 | 0.941 | > 10200 | 0.57 | 1580 | – | –
TOV-112D (ovary, adherent) | 0.926 | > 2000 | 0.711 | 126 | 0.842 | 70.6 | 0.899 | > 10200 | 0.134 | 69.3 | – | –
TT2609-C02 (thyroid, adherent) | 0.752 | 703 | 0.697 | 119 | 0.983 | > 100 | 0.885 | > 10200 | 0.093 | < 62.5 | – | –
TT (thyroid, adherent) | 0.938 | > 2000 | 0.978 | > 512 | 0.977 | > 100 | 0.974 | > 10200 | 0.656 | 3220 | – | –
TYK-nu (ovary, adherent) | 0.886 | > 2000 | 0.984 | > 512 | 0.849 | 83.3 | 0.969 | > 10200 | 0.201 | 120 | – | –
U-118-MG (glioma, adherent) | 0.851 | 1910 | 0.965 | > 512 | 0.984 | > 100 | 0.968 | > 10200 | 0.643 | 2650 | – | –
UACC-257 (melanoma, adherent) | 0.976 | > 2000 | – | – | 0.978 | > 100 | 0.805 | 6750 | – | – | 0.907 | > 16000
UACC-893 (breast, adherent) | 0.947 | > 2000 | 0.982 | > 512 | 0.979 | > 100 | 0.897 | > 10200 | 0.414 | 537 | – | –
UMC-11 (lung carcinoid, adherent) | 0.989 | > 2000 | 0.937 | > 512 | 0.99 | > 100 | 0.935 | > 10200 | 0.471 | 844 | – | –
VMRC-MELG (melanoma, adherent) | 0.989 | > 2000 | 0.987 | > 512 | 0.888 | > 100 | 0.969 | > 10200 | 0.6 | 1910 | – | –
VMRC-RCZ (kidney, adherent) | 0.929 | > 2000 | 0.846 | 469 | 0.978 | > 100 | 0.936 | > 10200 | 0.273 | 201 | – | –
WM35 (melanoma, adherent) | 0.681 | 402 | 0.89 | > 512 | 0.98 | > 100 | 0.56 | 937 | 0.438 | 677 | – | –
WM278 (melanoma, adherent) | 0.905 | > 2000 | 0.933 | > 512 | 0.973 | > 100 | 0.854 | 9760 | 0.299 | 251 | – | –
WM793B (melanoma, adherent) | 0.924 | > 2000 | 0.892 | > 512 | 0.968 | > 100 | 0.815 | 6380 | 0.183 | 98.2 | – | –
WM1552C (melanoma, adherent) | 0.988 | > 2000 | 0.853 | 403 | 0.961 | > 100 | 0.988 | > 10200 | 0.222 | 154 | – | –
WM-115 (melanoma, adherent) | 0.981 | > 2000 | 0.925 | > 512 | 0.972 | > 100 | 0.737 | 3610 | 0.919 | > 16000 | – | –
YAPC (pancreas, adherent) | 0.985 | > 2000 | 0.981 | > 512 | 0.983 | > 100 | 0.982 | > 10200 | 0.689 | 3900 | – | –
YKG-1 (glioma, adherent) | 0.903 | > 2000 | 0.796 | 244 | 0.985 | > 100 | 0.959 | > 10200 | 0.42 | 603 | – | –
huH-1 (liver, adherent) | 0.851 | > 2000 | 0.984 | > 512 | 0.973 | > 100 | 0.984 | > 10200 | 0.569 | 1620 | – | –
